Source: the supplement of paper PMC5499739
Whole data set: some 16,000 sequences, median “Z-score” near -0.37, cut for the highest 2% near 3.1. The list shows a part of the results.

system: RBM10 RRM1-ZnF-RRM2 (GST-tagged construct); assay: RNAcompete 7-mer binding Z-score; higher = stronger binding preference
How it was run: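 GST-tagged RBM10 constructs (20 pmol) were mixed with a designed pool of 241 399 RNAs up to 41 nt (1.5 nmol), transcribed from microarray-derived DNA templates. Mixing was in 1 ml Hepes pH 7.8 buffer with KCl, NaCl, glycerol, DTT, BSA and glutathione Sepharose beads. Binding ran 30 min at 4°C, followed by four 2-min washes at 4°C, and bound RNA was identified by microarray hybridisation. Each heptamer motif received a one-sided Z-score for enrichment across probes containing it.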

Sequence | RNAcompete 7-mer binding Z-score
CGCGCUA | -0.533
CAUAUCU | -0.679
GUGUUCU | -0.65
UGUGACC | -0.176
UGGGAAU | 2.42
ACAGCAA | -0.0962
GAUUCCG | -0.595
AGCGUUG | 0.141
UCGUCAU | -0.431
CGGUCUC | -0.664
UCUCAUU | -0.879
CGUUUUC | -0.701
GUCGGCA | 0.425
CAAGUAG | 0.53
CACAGUU | -0.624
UAGAUCA | -0.129
CGCUGUC | -0.734
ACUGAUG | -0.154
UACUUUU | -0.85
AAAGUUG | 0.0859
UGAAGCU | -0.191
GAGUCCA | -0.34
AGCUAUU | -0.646

Sequence | RNAcompete 7-mer binding Z-score
AUUUAUG | -0.391
AUCAAUU | -0.672
GAUGAGU | 1.01
CACGGCG | 0.0349
UCCCUAA | -0.839
UCCCGUC | -0.679
GCCUCGU | -0.781
AGUGAGA | 1.35
CCUUGUU | -0.901
CACUCUG | -0.967
GGUGUGG | 3.86
GAACGGA | 2.36
CUCGACU | -0.806
UUUAGGU | 0.0932
CGCGGAA | 0.319
GGAUAUU | 0.956
AUGCUCA | -0.766
AAUGGGG | 4.38
AGGACUU | -0.275
UCACCGG | -0.14
GGUGACG | 2.24
AAAAAAG | 0.159
UGCACCU | -0.628

Sequence | RNAcompete 7-mer binding Z-score
AGUAACG | 0.166
GUAGGGA | 4.26
GGCGUUA | 0.694
AAGUCGC | -0.406
GCGCAGU | 0.0823
GCUACCG | -0.366
GUCGCGC | -0.296
CGAGGUA | 1.8
GCGGUUU | 0.567
UAUCGAA | -0.3
UACCUGA | -0.606
AUAAACA | -0.231
GUCAUAC | -0.435
AACGACU | -0.497
CCACUAG | -0.522
CCUUUAC | -0.952
UGCAUCA | -0.511
GCGAGUU | 0.0641
AUUCCAC | -0.774
UAUAUAU | -0.42
GAACAUC | -0.519
UAAGAGG | 1.34
AAUUCUU | -0.734

Sequence | RNAcompete 7-mer binding Z-score
UAUUAGG | 0.712
CAUAUCA | -0.519
GCAAACG | 0.381
CUAGAAC | -0.519
ACAAGGA | 1.94
CUCAAAG | -0.493
ACCUAUC | -0.923
UGCCAUG | -0.653
GGGUUCU | 0.563
UGAGACG | 0.556
AAUUCGC | -0.588
GGGCCGC | 0.359
GCUGAGA | 0.0058
CUCCGCC | -0.836
UGGCGCA | 0.661
AGAACGU | -0.351
UGUUCGU | -0.26
AAAGACC | -0.61
UAUAACA | -0.347
AGGCGUG | 1.31
UUAAUUG | -0.46
ACUGAUA | -0.344
UAGAUAG | 0.385

Sequence | RNAcompete 7-mer binding Z-score
GGUUCCG | 0.257
UAACCAA | -0.424
GCUAAUC | -0.395
UAGUAAG | 0.465
GUGGACU | 1.24
UGCCACG | -0.435
AUACAAG | 0.33
UUUGCAA | -0.602
UUCGUCU | -0.544
UAUGCAC | -0.435
UACCCCC | -0.511
AUUGGCA | 0.541
UACGAUU | -0.395
AUAGGGA | 2.9
CUGCCGA | -0.715
CCUUACC | -0.712
CUGAACG | -0.398
ACUGGAC | -0.0452
UCUCGAU | -0.715
GCAGUAG | 0.891
CCCUUGU | -0.777
GAGGACU | 0.534
GGACAAC | 0.844

Sequence | RNAcompete 7-mer binding Z-score
ACCACCU | -0.599
AAUUCCG | -0.694
GAAUUCG | -0.231
GCACAGC | -0.0343
GGUGAGC | 2.6
UAUGCGA | 0.0714
CUUCAUU | -0.712
CAUCUCA | -0.814
AAACCUG | -0.471
AUACUGC | -0.577
CCGAUGU | -0.759
AUUGAAC | -0.337
GCUGUGA | -0.0889
UAGUCCU | -0.697
CUACCGC | -0.77
UUAGGAA | 0.971
AAUAUCU | -0.61
CAGAAUG | 0.545
GCCCUUG | -0.777
AAGGGGA | 4.44
UUUCAGU | -0.442
AUGAGCC | -0.3
CUAUCUU | -0.719

Sequence | RNAcompete 7-mer binding Z-score
UCAUCUU | -0.887
AGGCCUU | -0.653
UCUCAGG | -0.267
GACGUUG | 0.0604
CUACCUU | -0.865
CUCAUGG | -0.293
UAAUGAC | -0.231
AGUCCAG | -0.078
CGGGCUC | 0.0604
UGUCACG | -0.566
GUUGAUA | 0.261
CCUGGCG | -0.0925
UAAUAUC | -0.57
AUGAAUA | -0.133
UACUAGC | -0.617
UCCUGAU | -0.803
UAGGAGC | 1.74
CUUGCUG | -0.814
GUCUCUA | -0.646
UGUCGGG | 0.956
UCGCCUA | -0.664
CAGUUCU | -0.905
CUGCCUC | -0.912

Sequence | RNAcompete 7-mer binding Z-score
GCUCAUU | -0.836
UCGCUCA | -0.694
CGGUCAU | -0.326
UGCGCUU | -0.744
AUGCUGA | -0.0488
CCGGCGC | -0.588
ACCUCUC | -0.894
AUAAAUA | -0.271
GACAUUC | -0.555
CCCCAGC | -0.449
CCAUCUG | -0.828
CCGGUAG | 0.315
UCUCCCU | -0.774
ACUUUGC | -0.857
UCUCACA | -0.588
AAGCAAU | -0.00512
UGAGCAC | -0.107
AAAGGAU | 3.03
CGAGGCU | 0.217
CUGAUUC | -0.799
UAUUCUU | -0.85
GUCUUCG | -0.366
